Test system: NaV2 sodium channel
Conditions: for dependence of channel block on time window / shift of dose-response curves (use dependence): CHO NaV2, 20 Hz stimulus, 1 second vs 3 seconds

In the case of `CCCCN1CCCCC1C(=O)Nc1c(C)cccc1C` (centres unmarked) [Bupivacaine], the “dependence of channel block on time window / shift of dose-response curves (use dependence)” value is reported as “smaller amount of shift”.

For `CCN(CC)CC(=O)Nc1c(C)cccc1C` [Lidocaine], the “dependence of channel block on time window / shift of dose-response curves (use dependence)” value was “smaller amount of shift”.

In the case of `NC1=N[C@H](O)[C@H]2[C@H]3O[C@]4(O)O[C@@H]([C@@H](O)[C@@]2(N1)[C@@H]4O)[C@]3(O)CO` [TTX, tetrodotoxin], the “inhibition of response from cells stimulated above 90 V/cm” value is reported as “could not” and the EC50 (read-out: Electric field stimulation EC50) is reported as 6 nM.

With `CCCCNc1ccc(C(=O)OCCN(C)C)cc1` [Tetracaine, tetracaine] the “dependence of channel block on time window / shift of dose-response curves (use dependence)” value was “an order of magnitude stronger at 3 seconds than at 1 second”.

— patent US6969449B2, “Multi-well plate and electrode assemblies for ion channel assays” (Vertex Pharmaceuticals (San Diego) LLC, priority 2000, dated 2005)
